Test results taken from ChEMBL document CHEMBL4888484, “Replenishing the malaria drug discovery pipeline: Screening and hit evaluation of the MMV Hit Generation Library 1 (HGL1) against asexual blood stage Plasmodium falciparum ,using a nano luciferase reporter read-out” (2022).
Among all 150,000 compounds or so, about 540 (0.36%) showed an effect of 50% or more. The list shows a part of the results.

system: Plasmodium falciparum; experiment: Primary screen in NF54 nanoGlo assay, in single point, at 2uM, 72h; a lower Z score goes with more inhibition; format: functional, Erythrocyte; settings: timepoint 72 hour

| Structure (SMILES) | % Inhibition [%] | Z score |
| --- | --- | --- |
| O=C(O)c1cccnc1CN1CCC2(c3ccccc3)C(C1)C2(F)F (stereo unspecified) | 7 | -1.33 |
| Cc1ccc(-c2cc3n(n2)CCC(=O)N3CC(=O)NCc2ccccc2)cc1 | 0 | -0.05 |
| CC(C)NC(=O)c1nsc(C(=O)NCc2ccc3c(c2)OCO3)c1N | -17 | 1.64 |
| N#Cc1ccc(N2CCN(CC(=O)Nc3nncs3)CC2)cn1 | -12 | 1.55 |
| Cc1ncsc1CN[C@@H](C)c1cc2n(n1)CCC2 | -13 | 2.48 |
| O=C(Cn1cc(Cl)cn1)N1CC(Cc2ccoc2)C1 | -19 | 2.02 |
| O=S(=O)(N[C@H]1CCN(c2cc(N3CCOCC3)cnn2)C1)c1ccccc1 | -10 | 1.44 |
| Cc1cc(C(=O)Nc2ccc(Cl)c(F)c2N2CCOCC2)[nH]n1 | -6 | 0.79 |
| Cc1ccc(CN2CCC(Oc3ccc(Cl)cc3)(C(=O)O)CC2)s1 | 0 | 0.03 |
| Cc1noc(C)c1S(=O)(=O)N(C)C1CCCC(C)C1 (stereo unspecified) | -47 | 5.53 |
| C[C@H]1c2ccsc2CCN1C(=O)c1cc(C(=O)O)ccn1 | 0 | -0.03 |
| O=C1N(C2CCCCC2)C[C@H]2CN(Cc3ccc(C(F)(F)F)cc3)CCN12 | 14 | -2.27 |
| CC[C@H](C)c1ccc(O)c(NC(=O)COc2ccc(C)cc2-n2cnnc2)c1 | -4 | 0.49 |
| Cc1ccc(N(C)S(=O)(=O)c2cc(N(C)S(=O)(=O)c3ccccc3)c(C)cc2C)cc1 | -2 | 0.22 |
| Cc1ccc(CN2CCN(Cc3cccc(O)c3)[C@H]3CS(=O)(=O)C[C@H]32)o1 | -7 | 0.91 |
| CNC(=O)NC(=O)C(C)N1C[C@H]2CCCC[C@@]2(C(=O)OC)C1 (stereo partly specified) | -10 | 1.03 |
| Cc1cccc(NC(=O)c2nc3c(=O)n(Cc4ccccc4C)c4cc(C)ccc4n3n2)c1 | 3 | -0.35 |
| COc1ccc(-c2nc3cc(C)ccc3cc2CN2CCC[C@H]2C(N)=O)cc1OC | -6 | 0.74 |
| Cn1c2c(c(=O)n3ncc(C(=O)N4CCN(C5CCCCC5)CC4)c13)CN(Cc1ccccc1)CC2 | -2 | 0.32 |
| O=C(OCC(=O)N1CCC(Cc2ccccc2)CC1)c1ccncc1 | -9 | 1.08 |
| CCOC(=O)c1cnn(-c2nc3ccccc3s2)c1CN1CCC(O)(c2ccc(Cl)cc2)CC1 | -11 | 1.27 |

| Structure (SMILES) | % Inhibition [%] | Z score |
| --- | --- | --- |
| COc1cccc(C(=O)N2CCN(C(=O)c3ccc(-n4nc(C)cc4C)cc3)CC2)c1 | -8 | 0.8 |
| CC[C@H](C)Cc1n[nH]c(-c2cnc(C)[nH]c2=O)n1 | -3 | 0.63 |
| C[N+]1(C[C@@H](C(=O)c2ccccc2)c2ccccc2)CCCCCC1 | -14 | 1.23 |
| O=C(NCC[C@H]1CCCO1)[C@H]1CC[C@H](Nc2cnccn2)CC1 | -8 | 1.57 |
| Cc1ccc(C(=O)N2CCN(CC3CC3)[C@@H]3CS(=O)(=O)C[C@@H]32)c(C)c1 | -8 | 1.11 |
| COCCn1ccc2ccn(Cc3nc(C4CCCCC4)no3)c(=O)c21 | -23 | 1.99 |
| Cc1cc(-c2ccc(F)cc2Cl)c(=O)[nH]n1 | -19 | 2.08 |
| CN1CCOc2ccc(NC(=O)N[C@H]3CCCC3(C)C)cc21 | -2 | 0.19 |
| CCc1ccc(C(=O)N[C@H]2CCCN(CC)C2)[nH]1 | -10 | 1.71 |
| Clc1snnc1CN1CCN(Cc2ccccc2)CC1 | 1 | -0.1 |
| COc1ccc(NCc2nnc3n2CCCCC3)cc1Cl | -45 | 5.28 |
| CCc1nnsc1C(=O)Nc1cnccc1-n1ccnc1 | -9 | 1.25 |
| Cn1nnc2c(=O)n(CC(=O)N3CCC(Cc4ccccc4)CC3)cnc21 | -4 | 0.59 |
| Cc1c(C(=O)NCC(C)(CO)CO)nnn1CC1CCCC1 | -9 | 1.13 |
| COc1ncccc1NC(=O)c1cc(-c2ccc3c(c2)OCCO3)nc2c1cnn2C(C)C | -7 | 0.89 |
| CCn1ccc(C(=O)N2CC[C@H](Cc3nncn3CC)C2)n1 | -8 | 1.31 |
| Cc1cc(C(=O)N2CCC(C(N)=O)CC2)sc1-c1ccccc1 | -13 | 1.69 |
| COc1c(C(=O)Nc2ccccc2)oc2ccc(NC(=O)Cc3cccc(Cl)c3)cc12 | 1 | -0.14 |
| C[C@@H](CNC(=O)N1CCC1)CN(C)C(=O)OC(C)(C)C | -11 | 1.43 |
| CCc1nc(CNC(=O)c2ccc(C)nc2OC)n[nH]1 | -13 | 1.29 |
| COc1ccc(CC(=O)N[C@@H]2[C@H]3CCO[C@H]3[C@H]2Cc2ccccc2)cc1 | 10 | -1.26 |

| Structure (SMILES) | % Inhibition [%] | Z score |
| --- | --- | --- |
| CCN1CC(=O)N[C@@H]1c1ccnn1CC | -12 | 1.25 |
| CCN(CC)S(=O)(=O)N1CCC2(CC1)OCCc1ccsc12 | -6 | 0.87 |
| COCCN1CCC2(CCC1=O)CCN(C(=O)CC1CCCC1)CC2 | -11 | 1.23 |
| CN(C1CCCCC1)S(=O)(=O)N1CCC[C@H](C(=O)NCc2cccc(Br)c2)C1 | -13 | 1.23 |
| Cc1cc(N[C@@H](C)CS(C)(=O)=O)cc(C)c1Br | 12 | -1.45 |
| CCOCCC(=O)N[C@@H](C)c1nnc(C(C)C)o1 | 10 | -1.27 |
| Cc1cc2[nH]c(=O)[nH]c2c(NC(=O)CC[C@H](C)N2CCN(C)CC2)c1C | -10 | 1.61 |
| Cn1ccc(-c2n[nH]c(=O)n2CC2CCCCC2)n1 | -9 | 1.33 |
| O=C(CCc1cc2n(n1)CCNC2)Nc1cccc(-c2cnc[nH]2)c1 | -2 | 0.22 |
| Cc1nnc(CN2C[C@H](C)Oc3ccc(Br)cc32)o1 | -3 | 0.54 |
| Cn1cc(CNC(=O)C[C@@H]2C[C@H]3O[C@H](CNC(=O)NCc4ccccc4)[C@@H](O)[C@H]3O2)cn1 | -3 | 0.41 |
| Cc1ccccc1N1CCN(C(=O)CC[C@]2(Cc3ccc(-c4ccccc4)cc3)CCC(=O)N2)CC1 | -6 | 1.14 |
| CCc1nc(C)c(C(=O)Nc2cc(C(F)(F)F)c[nH]c2=O)s1 | -5 | 0.75 |
| Cc1ccc(-c2nc(C(=O)N3CC4CC5CC4C3C5O)cs2)n1C (stereo unspecified) | -8 | 0.95 |
| CCC(c1cccs1)N1C(=O)[C@H]2CN(S(=O)(=O)c3cc(C)ccc3C)C[C@H]2C1=O (stereo partly specified) | 0 | 0.01 |
| OCCc1cc(CC2(NCc3ccco3)COC2)no1 | -3 | 0.39 |
| CC1CC(NC(=O)c2nc(=O)[nH][nH]2)CN1c1ccccc1 (stereo unspecified) | -9 | 0.93 |
| CN(C(=O)C[C@]1(c2ccccc2)CC(=O)N(CCc2ccccn2)C1=O)C(C1CC1)C1CC1 | -5 | 0.72 |
| Cn1cc(C2C(C(=O)NC3CCCc4occc43)CC(=O)N2C(C)(C)C)cn1 (stereo unspecified) | 3 | -0.24 |
| O=C(CNC(=O)c1ccsc1)NCC1(C2CC2)CCC1 | -9 | 0.77 |
| CC(C)c1cc(C(=O)N2CCC(N3CCOC3=O)CC2)nc2ncnn12 | -12 | 2.36 |

| Structure (SMILES) | % Inhibition [%] | Z score |
| --- | --- | --- |
| COC[C@@H](C)n1nnnc1N1C2CCC1CC(CC(F)(F)F)C2 (stereo partly specified) | -10 | 1.27 |
| Cc1cc(C)n(-c2ccc([C@H](C)NC(=O)c3c[nH]nn3)cc2)n1 | -8 | 1.31 |
| CC1(F)CC(NC(=O)c2cscn2)C1 (stereo unspecified) | -2 | 0.23 |
| Cc1cc(-c2nc(CN3CCOCC3)no2)c2cccc(C)c2n1 | -5 | 0.62 |
| COc1cccc2c1NC(=O)C[C@H]2C(=O)N1CCC(CN2CCCC2=O)CC1 | 11 | -1.45 |
| CC1(C)CCC(O)(CN[C@H](c2ccccc2)c2nnc[nH]2)CC1 | -19 | 2.08 |
| CNc1ccc(-c2cc(C(F)(F)F)nn2C)cn1 | -5 | 0.93 |
| O=C(NC1(C(=O)O)CCCC1)c1cc(-c2ccccc2)ccc1Cl | 1 | -0.21 |
| Cc1cccc(-n2nc(C3CCOCC3)nc2-c2ccc3c(c2)OCO3)n1 | -11 | 1.87 |
| O=c1c(CN2CCN(c3ccc(F)cc3)CC2)cc2ccc(F)cc2n1C[C@H]1CCCO1 | -4 | 0.46 |
| COc1ccc(OC)c(S(=O)(=O)N2CCC[C@@](F)(C(=O)N3CCCC3)C2)c1 | -7 | 0.58 |
| C[C@@]1(C(=O)NC2CCCCCC2)Cn2nc(C3CC3)cc2C(=O)N1Cc1ccccc1F | -3 | 0.55 |
| CCOc1ccc(C)cc1S(=O)(=O)N(CCO)CCO | -7 | 1.07 |
| Cc1cnn(CCn2cnc(C#N)n2)c1 | 7 | -1.05 |
| COc1cc2c(cc1CN1CCC(c3ncncc3C)CC1)OCCCO2 | 2 | -0.35 |
| Cc1nc[nH]c1-c1cc(-c2cc(CN3CCOCC3)cs2)nc(N)c1C#N | -2 | 0.33 |
| COCCNC(=O)CN(C)C1CCCCC1 | -11 | 1.27 |
| Cc1ccc(C)c(-n2nc(C)c(CN3CCCC[C@H](S(C)(=O)=O)C3)c2Cl)c1 | -10 | 1.2 |
| CCCOc1ccccc1-c1cn(Cc2ccon2)nn1 | -12 | 1.65 |
| COc1ccc(CCNC(=O)C2C3C(=O)N(c4ccccc4)C[C@]34C=C[C@H]2O4)cc1 (stereo partly specified) | -13 | 2 |
